Results as given in PMC4267404, “Trihelix transcription factor GT-4 mediates salt tolerance via interaction with TEM2 in Arabidopsis”.
These are yes or no findings as the source states them, for the method shown. For part of these data: Binding seen in cells or lysates may run through a third protein. Some binding calls cover weakened binding; strength is not graded here. Sequences can lack the tags named with a protein. One block for each molecule: values may come before it.

The chains behind the UniProt entries cited, without tags or fusion partners.
UniProt P82280: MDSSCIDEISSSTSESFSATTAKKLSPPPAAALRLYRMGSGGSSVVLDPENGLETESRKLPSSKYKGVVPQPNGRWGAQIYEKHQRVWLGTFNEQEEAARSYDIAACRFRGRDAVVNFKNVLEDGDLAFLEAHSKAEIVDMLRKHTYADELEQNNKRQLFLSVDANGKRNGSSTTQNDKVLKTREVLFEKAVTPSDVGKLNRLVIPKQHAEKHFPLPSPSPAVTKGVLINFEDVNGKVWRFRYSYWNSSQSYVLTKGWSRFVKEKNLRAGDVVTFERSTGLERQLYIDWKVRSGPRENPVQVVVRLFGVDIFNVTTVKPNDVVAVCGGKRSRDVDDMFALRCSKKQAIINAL

Assays:
[1] = biological target: T1, GT-4-YFPc (GT-4 fused to the C-terminal part of yellow fluorescent protein) (Arabidopsis) (UniProt Q9LU92); experiment: split reporter; BiFC with YFP halves, constructs co-transformed into Arabidopsis protoplasts, confocal microscopy 16 h later
T1 sequence: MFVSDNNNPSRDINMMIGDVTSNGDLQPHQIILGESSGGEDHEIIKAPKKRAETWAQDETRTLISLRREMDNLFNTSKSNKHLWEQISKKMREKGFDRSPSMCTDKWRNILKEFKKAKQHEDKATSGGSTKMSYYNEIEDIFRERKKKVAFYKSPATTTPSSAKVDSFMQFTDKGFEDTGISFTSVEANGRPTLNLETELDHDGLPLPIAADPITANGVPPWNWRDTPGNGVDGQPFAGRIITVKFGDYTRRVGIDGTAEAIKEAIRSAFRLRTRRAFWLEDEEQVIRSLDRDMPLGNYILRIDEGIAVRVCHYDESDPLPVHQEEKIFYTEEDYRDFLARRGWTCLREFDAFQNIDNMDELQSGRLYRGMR

[2] = biological target: T2, BD-GT-4 (GT-4 fused to the GAL4 DNA-binding domain, pGBKT7-GT-4) (Arabidopsis) (UniProt Q9LU92); experiment: two-hybrid; pairwise mating of BD and AD fusions; growth on DDO and QDO/X/A plates for 3 d, blue colour means a positive interaction
T2 sequence: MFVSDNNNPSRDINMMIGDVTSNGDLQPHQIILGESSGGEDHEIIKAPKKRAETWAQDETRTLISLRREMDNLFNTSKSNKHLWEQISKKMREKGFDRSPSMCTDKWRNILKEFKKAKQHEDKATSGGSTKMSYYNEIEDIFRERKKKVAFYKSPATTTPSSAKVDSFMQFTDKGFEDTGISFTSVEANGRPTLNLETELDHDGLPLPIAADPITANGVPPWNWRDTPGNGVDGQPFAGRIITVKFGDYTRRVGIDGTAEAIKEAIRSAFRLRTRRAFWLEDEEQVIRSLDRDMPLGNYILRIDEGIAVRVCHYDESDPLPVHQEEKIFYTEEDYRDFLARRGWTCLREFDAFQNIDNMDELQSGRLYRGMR

[3] = biological target: T3, BD-GT-4C (C-terminal end of GT-4 fused to the GAL4 DNA-binding domain) (Arabidopsis) (UniProt Q9LU92); experiment: as above
T3 sequence: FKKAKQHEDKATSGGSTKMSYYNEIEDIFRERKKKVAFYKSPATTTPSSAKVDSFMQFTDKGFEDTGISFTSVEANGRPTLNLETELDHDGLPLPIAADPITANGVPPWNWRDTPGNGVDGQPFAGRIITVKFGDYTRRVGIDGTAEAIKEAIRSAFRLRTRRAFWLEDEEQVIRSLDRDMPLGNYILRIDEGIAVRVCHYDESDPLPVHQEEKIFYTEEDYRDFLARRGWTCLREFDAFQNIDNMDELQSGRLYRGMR

[4] = biological target: T4, BD-GT-4N (N-terminal end of GT-4 fused to the GAL4 DNA-binding domain) (Arabidopsis) (UniProt Q9LU92); experiment: as above
T4 sequence: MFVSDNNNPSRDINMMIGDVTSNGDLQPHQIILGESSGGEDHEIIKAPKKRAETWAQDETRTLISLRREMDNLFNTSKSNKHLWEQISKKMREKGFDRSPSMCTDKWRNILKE

[5] = biological target: Myc-TEM2 (35S-Myc-TEM2) (Arabidopsis) (UniProt P82280); experiment: co-IP; nuclear proteins from agro-infiltrated tobacco leaves, IP buffer 50 mM Tris-HCl pH 7.6, 150 mM NaCl, 0.5% NP-40, 0.2% Triton X-100, 2 mM EDTA; anti-c-Myc agarose beads overnight at 4 C; western blot with anti-Flag or anti-Myc

B1: BD-GT-4 (GT-4 fused to the GAL4 DNA-binding domain, pGBKT7-GT-4) (protein, UniProt Q9LU92 1-372)
chain: MFVSDNNNPSRDINMMIGDVTSNGDLQPHQIILGESSGGEDHEIIKAPKKRAETWAQDETRTLISLRREMDNLFNTSKSNKHLWEQISKKMREKGFDRSPSMCTDKWRNILKEFKKAKQHEDKATSGGSTKMSYYNEIEDIFRERKKKVAFYKSPATTTPSSAKVDSFMQFTDKGFEDTGISFTSVEANGRPTLNLETELDHDGLPLPIAADPITANGVPPWNWRDTPGNGVDGQPFAGRIITVKFGDYTRRVGIDGTAEAIKEAIRSAFRLRTRRAFWLEDEEQVIRSLDRDMPLGNYILRIDEGIAVRVCHYDESDPLPVHQEEKIFYTEEDYRDFLARRGWTCLREFDAFQNIDNMDELQSGRLYRGMR
- binding [2]: binds

B2: GT-4-Flag (35S-GT-4-Flag) (protein, UniProt Q9LU92 1-372)
chain: MFVSDNNNPSRDINMMIGDVTSNGDLQPHQIILGESSGGEDHEIIKAPKKRAETWAQDETRTLISLRREMDNLFNTSKSNKHLWEQISKKMREKGFDRSPSMCTDKWRNILKEFKKAKQHEDKATSGGSTKMSYYNEIEDIFRERKKKVAFYKSPATTTPSSAKVDSFMQFTDKGFEDTGISFTSVEANGRPTLNLETELDHDGLPLPIAADPITANGVPPWNWRDTPGNGVDGQPFAGRIITVKFGDYTRRVGIDGTAEAIKEAIRSAFRLRTRRAFWLEDEEQVIRSLDRDMPLGNYILRIDEGIAVRVCHYDESDPLPVHQEEKIFYTEEDYRDFLARRGWTCLREFDAFQNIDNMDELQSGRLYRGMR
- binding [5]: binds

Next, values leading:

- binding [1]: binds
Molecule: TEM2-YFPn (TEM2 fused to the N-terminal part of yellow fluorescent protein) (from UniProt P82280 1-352)

- binding [2]: binds
- binding [3]: binds
- binding [4]: no binding
Molecule: AD-TEM2 (TEM2 fused to the GAL4 activation domain, pGADT7-TEM2) (from UniProt P82280 1-352)
